Assay results reported in patent US9809623B2, “α4β7 peptide monomer and dimer antagonists” (Protagonist Therapeutics, Inc., priority 2014, dated 2017).
Several values for one entry are separate records, joined by “and”; a condition that tells them apart may be missing. Identical values can stand only once. At least one compound was matched to its structure with a doubt left. Numbered stars: 1 amine (or outer) side, 2 acyl side, 3 side chain; on linkers, the order of the positions; unused ones are H or OH. Bridge positions count the residues as written; N and C are the ends. Square brackets hold non-standard residues; d marks the D form. Peptide text beside a SMILES is read from it. I, II: the chains in the order shown. Phe(4-tBu) = CC(C)(C)c1ccc(C[C@H](N)C(=O)O)cc1; Diglycolyl = O=C(COCC(=O)[*:2])[*:1]; NMeR = CN[C@@H](CCCNC(=N)N)C(=O)O; Pen = CC(C)(S)[C@H](N)C(=O)O

Key:
α4β7 integrin = α4β7 integrin (Homo sapiens, UniProt P13612+P26010, DEL724-798); assay: Surface plasmon resonance (SPR), binding of soluble α4β7 integrin to immobilized biotin-labeled ligand
Chain of α4β7 integrin (P13612 34-977 limits assumed, stated change not applied): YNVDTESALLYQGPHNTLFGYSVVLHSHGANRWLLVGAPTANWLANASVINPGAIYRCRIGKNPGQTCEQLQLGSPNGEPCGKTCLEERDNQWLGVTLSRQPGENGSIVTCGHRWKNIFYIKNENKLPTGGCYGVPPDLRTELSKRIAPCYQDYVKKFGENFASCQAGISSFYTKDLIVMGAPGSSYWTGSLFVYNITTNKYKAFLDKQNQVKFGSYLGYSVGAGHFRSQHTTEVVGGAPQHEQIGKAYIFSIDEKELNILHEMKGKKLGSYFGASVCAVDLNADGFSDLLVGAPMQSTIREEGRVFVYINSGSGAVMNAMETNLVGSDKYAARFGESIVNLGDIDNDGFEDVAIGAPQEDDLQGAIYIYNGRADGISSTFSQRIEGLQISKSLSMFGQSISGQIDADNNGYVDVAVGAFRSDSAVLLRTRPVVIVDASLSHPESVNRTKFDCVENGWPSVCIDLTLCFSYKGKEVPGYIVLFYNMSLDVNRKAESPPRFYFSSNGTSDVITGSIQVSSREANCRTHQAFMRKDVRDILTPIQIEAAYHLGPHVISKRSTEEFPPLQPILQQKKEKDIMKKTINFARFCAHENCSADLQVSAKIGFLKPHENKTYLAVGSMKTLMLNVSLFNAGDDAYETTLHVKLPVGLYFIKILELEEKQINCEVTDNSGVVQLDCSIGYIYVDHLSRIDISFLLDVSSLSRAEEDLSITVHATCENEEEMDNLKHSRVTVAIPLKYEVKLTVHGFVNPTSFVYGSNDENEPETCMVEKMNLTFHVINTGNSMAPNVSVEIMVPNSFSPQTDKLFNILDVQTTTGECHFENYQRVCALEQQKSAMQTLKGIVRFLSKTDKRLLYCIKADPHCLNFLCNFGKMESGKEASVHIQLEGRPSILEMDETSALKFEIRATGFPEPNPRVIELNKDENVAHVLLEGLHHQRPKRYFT
Chain of α4β7 integrin (P26010 20-723 limits assumed, stated change not applied): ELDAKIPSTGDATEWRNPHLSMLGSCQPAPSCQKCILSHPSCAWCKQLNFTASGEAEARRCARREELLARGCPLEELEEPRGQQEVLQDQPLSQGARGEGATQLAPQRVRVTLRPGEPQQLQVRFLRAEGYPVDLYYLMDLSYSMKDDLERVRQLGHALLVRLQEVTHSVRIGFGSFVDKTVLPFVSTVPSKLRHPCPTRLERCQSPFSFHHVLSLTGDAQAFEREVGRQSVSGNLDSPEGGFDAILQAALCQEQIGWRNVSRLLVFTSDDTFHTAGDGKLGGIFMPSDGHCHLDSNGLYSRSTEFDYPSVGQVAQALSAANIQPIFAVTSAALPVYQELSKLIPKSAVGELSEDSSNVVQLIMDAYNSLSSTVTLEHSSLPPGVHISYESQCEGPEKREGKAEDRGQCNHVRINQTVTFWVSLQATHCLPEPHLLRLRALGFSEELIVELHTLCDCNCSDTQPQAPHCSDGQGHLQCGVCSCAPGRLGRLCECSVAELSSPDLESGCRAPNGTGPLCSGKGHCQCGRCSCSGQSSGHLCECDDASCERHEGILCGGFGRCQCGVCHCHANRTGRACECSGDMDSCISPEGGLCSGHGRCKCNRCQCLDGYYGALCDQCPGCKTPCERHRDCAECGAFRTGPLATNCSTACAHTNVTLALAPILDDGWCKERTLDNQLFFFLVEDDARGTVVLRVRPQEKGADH
From the text: Surface plasmon resonance (SPR) was used to further evaluate the binding properties of Peptide X. An analog of Peptide X (Peptide X-biotin), which contains a biotin group attached to Peptide X via a PEG linker, was synthesized. Another peptide dimer having the following structure, which is closely related to Peptide X, was also synthesized and biotin-labeled:
• (Peptide Z). Vedolizumab was also chemically biotinylated. Peptide X-biotin, Peptide Z-biotin, or biotin-labeled vedolizumab antibody was immobilized to a streptavidin coated SPR chip, and the binding of soluble α4β7 integrin was measured. […] This half-life is quite long, and may be caused by a tight association between the peptide and the bound Mn^2+ metal ion on the integrin. […] In addition, the KD for Peptide X-biotin was substantially lower than that for Peptide Z-biotin.

α4β1 = molecular target: T1, α4β1 (Homo sapiens, UniProt P05556+P13612, DEL729-798); assay: α4β1-VCAM Competition ELISA; type: binding; conditions: Table 3-B, Selectivity (α4β1); range classes; read-out: α4β1 ELISA IC50
T1 construct: purchased R&D Systems 5668-A4
T1 sequence (P13612 34-977 limits assumed, stated change not applied): as the sequence (P13612 34-977 limits assumed, stated change not applied) above
T1 sequence (P05556 21-728 limits assumed, stated change not applied): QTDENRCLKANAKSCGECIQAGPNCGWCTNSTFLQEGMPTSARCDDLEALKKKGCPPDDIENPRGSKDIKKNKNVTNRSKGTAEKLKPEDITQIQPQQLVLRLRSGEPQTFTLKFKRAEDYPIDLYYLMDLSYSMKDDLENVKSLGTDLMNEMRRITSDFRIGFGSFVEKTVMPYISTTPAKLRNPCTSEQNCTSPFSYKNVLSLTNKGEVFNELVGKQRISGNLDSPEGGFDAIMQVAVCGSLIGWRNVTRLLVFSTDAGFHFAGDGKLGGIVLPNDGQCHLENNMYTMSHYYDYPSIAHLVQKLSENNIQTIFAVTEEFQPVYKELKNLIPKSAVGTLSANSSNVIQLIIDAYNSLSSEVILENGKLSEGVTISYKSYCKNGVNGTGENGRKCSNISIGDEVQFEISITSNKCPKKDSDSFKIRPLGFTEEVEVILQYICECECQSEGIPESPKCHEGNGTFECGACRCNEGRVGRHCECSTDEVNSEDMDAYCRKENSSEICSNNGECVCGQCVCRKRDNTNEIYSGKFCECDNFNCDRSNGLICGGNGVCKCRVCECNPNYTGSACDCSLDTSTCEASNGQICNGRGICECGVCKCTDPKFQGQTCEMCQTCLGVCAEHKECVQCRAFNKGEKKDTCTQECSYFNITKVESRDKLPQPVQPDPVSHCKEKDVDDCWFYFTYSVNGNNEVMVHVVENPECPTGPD
Procedure: A Nunc MaxiSorp plate was coated with rh VCAM-1/CD106 Fc chimera (R&D #862-VC) at 400 ng/well in 50 ul per well in 1×PBS and incubated overnight at 4° C. The solution was removed by shaking and then blocked with 250 ul of 1% BSA in 1×PBS per well. The wells were then incubated at room temperature for 1 hr with shaking. Each well was then washed once with wash buffer (50 mM Tris-HCl pH7.6, 100 mM NaCL, 1 mM MnCl2 or MgCl2, 0.05% Tween-20). 25 ul of serial dilutions of peptides starting at 200 μM in assay buffer (Assay buffer: 50 mM Tris-HCl pH7.6, 100 mM NaCl, 1 mM MnCl2 or MgCl2, 0.05% Tween-20) was added to each well. Additionally, 25 ul of α4β1 (R&D Systems #5668-A4) was added to each well at a fixed concentration of 120 nM. The final peptide and α4β1 concentrations were 100 μM and 60 nM, respectively. The plates were then incubated at 37° C. for 2 hr. The solution was then removed by shaking, and each well was washed three times with wash buffer. 50 ul of 9F10 antibody at 4 ug/ml (purified mouse anti-human CD49d, BD Bioscience Cat#555502) was then added to each well, and the plate was incubated at room temperature for 1 hr with shaking. The solution was again removed by shaking, and each well was washed three times with wash buffer. 50 ul of peroxidase-conjugated AffiniPure Goat anti-mouse IgG (Jackson immune research cat #115-035-003) diluted in 1:5000 in assay buffer was added to each well. The plate was incubated at room temperature for 30 min with shaking. Each well was then washed 3 times with wash buffer. 100 ul of TMB was then added to each well and closely observe during developing time. The reaction was stepped with 2N H2SO4 and absorbance was read at 450 nm.

rh integrin α4β7 = molecular target: T2, rh integrin α4β7 (Homo sapiens, UniProt P13612+P26010); assay: α4β7-MAdCAM Competition ELISA; type: binding; conditions: Table 3-B, Potency (α4β7); range classes; read-out: α4β7 ELISA IC50
T2 construct: purchased R&D Systems 5397-A30
T2 sequence (P13612 34-977 limits assumed): as the sequence (P13612 34-977 limits assumed, stated change not applied) above
T2 sequence (P26010 20-723 limits assumed): as the sequence (P26010 20-723 limits assumed, stated change not applied) above
Procedure: A nickel coated plate (Pierce #15442) was coated with rh integrin α4β7 (R&D Systems #5397-A30) at 800 ng/well and incubated at room temperature with shaking for 1 hr. The solution was then removed by shaking and blocked with assay buffer (50 mM Tris-HCl pH7.6, 150 mM NaCl, 1 mM MnCl2 or MgCl2, 0.05% Tween-20 and 0.5% BSA) at 250 ul/well. The plate was then incubated at room temperature for 1 hr. Each well was washed 3 times with wash buffer (50 mM Tris-HCl pH7.6, 100 mM NaCl, 1 mM MnCl2 or MgCl2, 0.05% Tween-20). To each well was added 25 ul of a serial dilution (3-fold dilutions in assay buffer) of peptide starting at 20 μM. 25 ul of recombinant human MAdCAM-1 (R&D Systems #6056-MC) was then added to each well at a fixed concentration 20 nM. The final starting peptide concentration was 10 μM, and the final MAdCAM-1 concentration was 10 nM. The plates were then incubated at room temperature for 1 hr to reach binding equilibrium. The wells were then washed three times with wash buffer. 50 ul of mouse anti-human IgG1-HRP (Invitrogen # A10648) diluted in 1:2000 in assay buffer was then added to each well. The wells were incubated at room temperature for 45 min with shaking. The wells were then washed 3 times with wash buffer. 100 ul of 3,3′,5,5′-Tetramethylbenzidine (TMB) were then added to each well and closely observe during development time. The reaction was stopped with 2N H2SO4 and absorbance was read at 450 nm.
TMB is a chromogenic substrate suitable for use in ELISA procedures, which utilize horseradish peroxidase conjugates. This substrate produces a soluble end product that is blue in color and can be read spectrophotometrically at 370 or 655 nm. The reaction maybe stopped with 2 M H2S04, resulting in a yellow solution that is read at 450 nm. Each tablet contains 1 mg of TMB substrate. To prepare TMB Substrate Solution, dissolve one 3,3′,5,5′-tetramethylbenzidine tablet in 1 ml of DMSO and add to 9 ml of 0.05 M Phosphate-Citrate Buffer, pH 5.0. Add 2 μl of fresh 30% hydrogen peroxide (Product No. H 1009) per 10 ml of substrate buffer solution, immediately prior to use.

α4β7 [1] = molecular target: T3, α4β7 (Homo sapiens, UniProt P13612+P26010); assay: α4β7-MAdCAM Cell Adhesion Assay (RPMI 8866 human cells); type: cell-based; set-up: host or cells: RPMI 8866 human B lymphoblastoid cells; conditions: Table 3-B, Potency (α4β7); range classes; read-out: α4β7 cell (Hu) IC50
T3 sequence (P13612 34-1032): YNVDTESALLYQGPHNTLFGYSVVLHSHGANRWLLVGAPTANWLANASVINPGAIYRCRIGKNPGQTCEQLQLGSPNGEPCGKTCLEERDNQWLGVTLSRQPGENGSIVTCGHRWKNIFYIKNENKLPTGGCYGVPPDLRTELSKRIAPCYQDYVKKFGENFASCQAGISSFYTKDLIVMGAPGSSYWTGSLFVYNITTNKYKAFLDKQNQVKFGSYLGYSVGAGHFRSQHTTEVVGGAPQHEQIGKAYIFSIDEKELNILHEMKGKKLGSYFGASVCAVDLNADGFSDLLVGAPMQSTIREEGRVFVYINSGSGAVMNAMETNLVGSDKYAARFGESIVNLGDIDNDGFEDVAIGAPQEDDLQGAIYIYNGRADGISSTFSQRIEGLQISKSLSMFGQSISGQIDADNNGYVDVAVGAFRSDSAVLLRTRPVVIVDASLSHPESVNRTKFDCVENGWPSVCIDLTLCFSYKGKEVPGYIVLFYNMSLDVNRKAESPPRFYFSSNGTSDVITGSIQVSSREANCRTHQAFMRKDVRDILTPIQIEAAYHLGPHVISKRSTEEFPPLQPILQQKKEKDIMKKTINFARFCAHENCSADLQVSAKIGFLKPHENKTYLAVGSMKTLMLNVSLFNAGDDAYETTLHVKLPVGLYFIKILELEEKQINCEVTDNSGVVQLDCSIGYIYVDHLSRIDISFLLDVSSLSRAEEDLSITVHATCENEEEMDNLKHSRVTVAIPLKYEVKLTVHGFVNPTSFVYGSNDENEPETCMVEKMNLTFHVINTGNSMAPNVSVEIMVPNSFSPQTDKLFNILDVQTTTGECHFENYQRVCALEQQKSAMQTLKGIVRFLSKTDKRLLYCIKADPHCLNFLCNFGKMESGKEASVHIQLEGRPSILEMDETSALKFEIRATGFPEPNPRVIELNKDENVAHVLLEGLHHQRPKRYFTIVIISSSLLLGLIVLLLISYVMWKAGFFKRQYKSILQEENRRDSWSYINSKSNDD
T3 sequence (P26010 20-798): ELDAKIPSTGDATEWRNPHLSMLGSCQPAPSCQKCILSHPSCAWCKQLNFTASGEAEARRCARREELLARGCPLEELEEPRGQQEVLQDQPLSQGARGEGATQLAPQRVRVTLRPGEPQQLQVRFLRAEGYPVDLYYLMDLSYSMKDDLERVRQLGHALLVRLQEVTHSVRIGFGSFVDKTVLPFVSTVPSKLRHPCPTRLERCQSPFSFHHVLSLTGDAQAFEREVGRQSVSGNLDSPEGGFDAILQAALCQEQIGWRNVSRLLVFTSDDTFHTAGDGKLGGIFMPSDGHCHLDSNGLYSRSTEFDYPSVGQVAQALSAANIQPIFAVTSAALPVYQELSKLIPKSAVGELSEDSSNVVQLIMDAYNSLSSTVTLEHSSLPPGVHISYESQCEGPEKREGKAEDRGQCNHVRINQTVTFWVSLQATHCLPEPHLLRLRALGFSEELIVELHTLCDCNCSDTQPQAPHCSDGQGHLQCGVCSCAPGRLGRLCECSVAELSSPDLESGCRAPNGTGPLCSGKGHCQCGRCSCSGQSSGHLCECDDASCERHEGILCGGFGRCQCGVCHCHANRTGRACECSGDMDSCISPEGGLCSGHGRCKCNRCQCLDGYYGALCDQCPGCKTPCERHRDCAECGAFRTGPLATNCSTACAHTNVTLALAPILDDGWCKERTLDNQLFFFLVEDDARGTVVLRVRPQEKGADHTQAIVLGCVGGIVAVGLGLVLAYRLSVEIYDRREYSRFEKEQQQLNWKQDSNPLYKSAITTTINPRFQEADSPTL
Outline: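 Washed RPMI 8866 cells (200,000/well) in DMEM with 0.1% BSA, 10 mM HEPES pH 7, 1 mM MnCl2 adhered to rh MAdCAM-1/Fc-coated wells with serially diluted peptides, 30-45 min at 37 °C. After three washes, bound cells quantified by MTT, A570, cell-free background subtracted for dose response.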

α4β7 [2] = molecular target: T3, α4β7; assay: PBMC Memory T Cell Adhesion Assay, adhesion to MAdCAM-1; type: cell-based; conditions: Table 3-B; range classes
Procedure: Fresh CD4+/CD45RO+ memory T cells were isolated from human peripheral blood mononuclear cell (PBMC) donors by Aragen Bioscience Inc. (Morgan Hill, Calif.). The assay plate was prepared using IgG Fc capture antibody (donkey anti human) immobilized at 500 ng/well in 50 mM sodium bicarbonate buffer, pH 9.5, ON, 4C onto a Greiner Fluotrac plate (100 ul per well). The plate was rinsed two time with Blocking Buffer (25 mM Tris HCl, pH7.5, 150 mM NaCl, 1.5% BSA, 0.05% Tween), and blocked with Blocking Buffer for 2 hours at 37 C or 5 hours at RT using 200 ul per well. The Blocking Buffer was removed and either MAdCAM-1 or VCAM-1 at 400 ng/well in Blocking Buffer was added and the plate incubated overnight at 4C (100 ul per well). The plate was washed two times with Blocking Buffer, and rinsed once with 200 ul Binding Media (DMEM phenol red free, 10 mM HEPES, 1×Na pyruvate, 1× Glutamine, and supplemented with 1 mM MnCl2 prior to use). To prepare cells, approximately 25 million CD4+/CD45RO+ memory T cells were counted by trypan blue exclusion using a haemocytometer to determine viability and cell count. […] Fluorescence intensity was measured using a Molecular Devices Gemini EM Fluorescent Plate Reader (Ex 485/Em530, Bottom Read, Reading Sensitivity=20). IC50 curves are generated using Graph Pad Prism and the curves analyzed using analyzed using a non-linear regression (four parameters) algorithm. […]

Row | SMILES | Kd (α4β7 integrin) | IC50 (α4β1) | IC50 (rh integrin α4β7) | IC50 (α4β7 [1]) | IC50 (α4β7 [2])
1 | CC(=O)N[C@@H]1C(=O)N(C)[C@@H](CCCNC(=N)N)C(=O)N[C@@H](CO)C(=O)N[C@@H](CC(=O)O)C(=O)N[C@@H]([C@@H](C)O)C(=O)N[C@@H](CC(C)C)C(=O)N[C@H](C(=O)N[C@@H](Cc2ccc(C(C)(C)C)cc2)C(=O)N[C@@H](CCC(=O)O)CC(=O)N[C@H](CCCCNC(=O)CN(CC(=O)NCCCC[C@@H](NC(=O)C[C@H](CCC(=O)O)NC(=O)[C@H](Cc2ccc(C(C)(C)C)cc2)NC(=O)[C@H]2NC(=O)[C@H](CC(C)C)NC(=O)[C@H]([C@@H](C)O)NC(=O)[C@H](CC(=O)O)NC(=O)[C@H](CO)NC(=O)[C@H](CCCNC(=N)N)N(C)C(=O)[C@@H](NC(C)=O)C(C)(C)SSC2(C)C)C(N)=O)C(=O)CCNC(=O)CCOCCOCCOCCOCCNC(=O)CCCC[C@@H]2SC[C@@H]3NC(=O)N[C@@H]32)C(N)=O)C(C)(C)SSC1(C)C [Peptide X-biotin] | 15 nM and 15.4 nM | – | – | – | –
2 | CC(=O)N[C@@H]1C(=O)N(C)[C@@H](CCCNC(=N)N)C(=O)N[C@@H](CO)C(=O)N[C@@H](CC(=O)O)C(=O)N[C@@H]([C@@H](C)O)C(=O)N[C@@H](CC(C)C)C(=O)N[C@H](C(=O)N[C@@H](Cc2ccc(C(C)(C)C)cc2)C(=O)N[C@@H](CCC(=O)O)C(=O)N[C@H](CCCCNC(=O)COCC(=O)NCCCC[C@@H](NC(=O)[C@H](CCC(=O)O)NC(=O)[C@H](Cc2ccc(C(C)(C)C)cc2)NC(=O)[C@H]2NC(=O)[C@H](CC(C)C)NC(=O)[C@H]([C@@H](C)O)NC(=O)[C@H](CC(=O)O)NC(=O)[C@H](CO)NC(=O)[C@H](CCCNC(=N)N)N(C)C(=O)[C@@H](NC(C)=O)C(C)(C)SSC2(C)C)C(N)=O)C(N)=O)C(C)(C)SSC1(C)C [compound 131] (I: Ac-[Pen][NMeR]SDTL[Pen][Phe(4-tBu)]E[dK]-NH2 / II: Ac-[Pen][NMeR]SDTL[Pen][Phe(4-tBu)]E[dK]-NH2; disulfide I:1-I:7, II:1-II:7; linker I:10-II:10 via Diglycolyl) | – | 100 to 500 nM | < 10 nM | < 10 nM | –
3 | CC(=O)N[C@@H]1C(=O)N(C)[C@@H](CCCNC(=N)N)C(=O)N[C@@H](CO)C(=O)N[C@@H](CC(=O)O)C(=O)N[C@@H]([C@@H](C)O)C(=O)N[C@@H](CC(C)C)C(=O)N[C@H](C(=O)N[C@@H](Cc2ccc(C(C)(C)C)cc2)C(=O)N[C@@H](CCC(=O)O)CC(=O)N[C@H](CCCCNC(=O)CN(CC(=O)NCCCC[C@@H](NC(=O)C[C@H](CCC(=O)O)NC(=O)[C@H](Cc2ccc(C(C)(C)C)cc2)NC(=O)[C@H]2NC(=O)[C@H](CC(C)C)NC(=O)[C@H]([C@@H](C)O)NC(=O)[C@H](CC(=O)O)NC(=O)[C@H](CO)NC(=O)[C@H](CCCNC(=N)N)N(C)C(=O)[C@@H](NC(C)=O)C(C)(C)SSC2(C)C)C(N)=O)C(=O)CCNC(=O)CCOCCOCCOCCOCCNC(=O)CCCCC2SCC3NC(=O)NC32)C(N)=O)C(C)(C)SSC1(C)C (stereo partly drawn) [compound 167] | – | – | – | < 10 nM | < 10 nM
